# Among all 410,000 compounds or so, about 260 (0.063%) were called active. Inconclusive means that the source gave no clear call. Such entries were picked first, then a sample of the others. Calls follow the shape of the dose curve; as a rule, active = well fitted activation curve with a large enough effect; inconclusive = small, poorly fitted or top-dose-only effect; inactive = no such curve, though single readings can be large or run the other way. Potencies of inconclusive entries are left out as doubtful fits.
# Test: qHTS for compounds that reverse cellular toxicity of Amyloid beta (A-beta) peptide in yeast: Primary Screen; also: nearly all actives have a fitted effect of over 55% in size
# Settings: yeast expressing A-beta42, growth rescue, OD600, 48 h; growth rescue: at 46.1 µM (top of the series), 0% DMSO, 100% iron-clioquinol control
# How it was run: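 Yeast growth medium received pinned compounds, then yeast cells expressing toxic A-beta were added; plates incubated at 30 C for 48 hr. Growth read as absorbance at 600 nm, normalized to DMSO and equimolar FeCl3 plus clioquinol controls.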
# Potency is read from the fitted curve at half-maximal effect; tags tell the direction and shape of the fitted curve.
row,SMILES,Potency
1,CC(=O)c1c(C)[nH]c(=S)c(C#N)c1-c1ccc(F)cc1,"inconclusive [activator, single point]"
2,CC1CC2(CC(C)(C(=O)CSc3n[nH]c(-c4ccccc4Cl)n3)OC2=O)C(=O)O1 (stereo not given),"inconclusive [activator, partial curve, poor fit]"
3,CCOC(=O)Cc1csc(NC(=O)COc2ccc3c(c2)CCC3)n1,"inconclusive [activator, single point]"
4,CCc1ccc(NC(=O)N(Cc2cn(CC)c3ccccc23)C2CCCCC2)cc1,inactive
5,Cc1nc2ccc([N+](=O)[O-])cc2c(=O)n1Cc1cccc(F)c1,"inconclusive [activator, partial curve]"
6,Cn1c2ccccc2c2cc(C(=O)O)ccc21,inactive
7,O=C1c2[nH]nc(-c3ccccc3O)c2C(c2ccc(Cl)cc2)N1CCc1ccccc1 (stereo not given),inactive
8,CN(C)/C=N/C(=S)Nc1ccc(Cl)cc1,"inconclusive [activator, partial curve]"
9,CC1CC(C)(C)NC(=S)N1CCC(=O)Nc1ccc2c(c1)OCCO2 (stereo not given),"inconclusive [activator, single point]"
10,Nc1cc2c(cc1Cl)-c1ccc(Cl)cc1C2,inactive
11,COc1ccc(CN2CCN(Cc3c[nH]c4ccccc34)CC2)cc1OC,"inconclusive [activator, single point]"
12,CCOc1ccc(N(CC(=O)N2CCN(c3ccc(F)cc3)CC2)S(=O)(=O)c2c(C)noc2C)cc1,"inconclusive [activator, single point]"
13,COc1cccc(C(=O)Nc2ccc(-c3nnc(-c4ccco4)o3)cc2)c1,inactive
14,CC(C)(C)c1ccc(C(=O)NC(=S)N2CCCC2)cc1,"inconclusive [activator, full curve]"
15,O=C(COc1c(Br)cc(Br)c2cccnc12)N1CCc2ccccc2C1,inactive
16,Cc1cc(NC(=O)c2cc(-c3ccccc3C)nc3ccccc23)no1,inactive
17,Cc1nn(-c2ccccc2)cc1/C=N/NC(=O)c1cccs1,"inconclusive [activator, single point]"
18,CCC(=O)Nc1cc(C(F)(F)F)ccc1N1CCOCC1,"inconclusive [activator, partial curve]"
19,CCOCCCn1c(NN)nc2ccccc2c1=O,"inconclusive [activator, partial curve, poor fit]"
20,Cc1cccc(NC(=S)NCc2ccc(F)cc2)c1C,"inconclusive [activator, partial curve, poor fit]"
